The other results are listed elsewhere or left out.
Molecular target: T1, MBP-FoxP1dN (Mus musculus, UniProt P58462 326-579)
T1 sequence: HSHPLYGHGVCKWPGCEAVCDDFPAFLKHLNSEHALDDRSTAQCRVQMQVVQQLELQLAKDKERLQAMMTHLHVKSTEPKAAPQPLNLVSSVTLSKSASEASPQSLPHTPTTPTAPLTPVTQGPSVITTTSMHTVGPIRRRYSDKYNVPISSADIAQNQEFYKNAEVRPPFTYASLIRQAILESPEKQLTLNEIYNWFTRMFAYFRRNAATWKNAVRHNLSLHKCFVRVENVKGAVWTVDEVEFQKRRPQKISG
Test: PD-seq (MBP pull-down with sequencing); 20 mM Tris-HCl pH 7.5, 100 mM NaCl, 1.5 mM MgCl2, 0.4 uM protein, 0.1 uM dsDNA library, 30 min, room temperature, amylose pull-down; high values mean tight binding
Conditions: protein: recombinant; tags: His6-MBP; chain copies: 2; dsDNA, one strand shown
Method in brief: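 E. coli-expressed mouse FoxP3 or FoxP1 fragment, N-terminus removed and tagged with His6-MBP, was used at 0.4 µM against 0.1 µM of a Klenow-filled degenerate double-stranded DNA library. After 30 min at room temperature in Tris pH 7.5 buffer with NaCl and MgCl2, complexes were pulled down on amylose resin and washed three times. Binding is pull-down over input reads-per-million enrichment from pooled replicates of the proteinase K-released, PCR-barcoded, Illumina-sequenced DNA.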

Sequence	binding signal
GATGATTGTTCTCCCAGCTGATGAATTATAACTCTCGAGTAAACAAATTTTCCTAATCTTTCTGTTCAAGCGCCATCTAC	1.03 RPM ratio (pull-down/input)
GATGATTGTTCTCCCAGCTGATGAATTTCTTCGGTCGAGTAAACAAATTTTCCTAATCTTTCTGTTCAAGCGCCATCTAC	0.814 RPM ratio (pull-down/input)
GATGATTGTTCTCCCAGCTGATGAATTTAGTAGGTCGAGTAAACAAATTTTCCTAATCTTTCTGTTCAAGCGCCATCTAC	0.959 RPM ratio (pull-down/input)
GATGATTGTTCTCCCAGCTGATGAATTCTCTACGTCGAGTAAACAAATTTTCCTAATCTTTCTGTTCAAGCGCCATCTAC	0.829 RPM ratio (pull-down/input)
GATGATTGTTCTCCCAGCTGATGAATTGGTTAGTTCGAGTAAACAAATTTTCCTAATCTTTCTGTTCAAGCGCCATCTAC	1 RPM ratio (pull-down/input)
GATGATTGTTCTCCCAGCTGATGAATTCTGTATCTCGAGTAAACAAATTTTCCTAATCTTTCTGTTCAAGCGCCATCTAC	1.03 RPM ratio (pull-down/input)
GATGATTGTTCTCCCAGCTGATGAATTGAGTGACTCGAGTAAACAAATTTTCCTAATCTTTCTGTTCAAGCGCCATCTAC	0.833 RPM ratio (pull-down/input)
GATGATTGTTCTCCCAGCTGATGAATTGCGCTGCTCGAGTAAACAAATTTTCCTAATCTTTCTGTTCAAGCGCCATCTAC	1.03 RPM ratio (pull-down/input)
GATGATTGTTCTCCCAGCTGATGAATTTTGGAAATCGAGTAAACAAATTTTCCTAATCTTTCTGTTCAAGCGCCATCTAC	0.986 RPM ratio (pull-down/input)
GATGATTGTTCTCCCAGCTGATGAATTAGACAAATCGAGTAAACAAATTTTCCTAATCTTTCTGTTCAAGCGCCATCTAC	1.29 RPM ratio (pull-down/input)
GATGATTGTTCTCCCAGCTGATGAATTCTCTAGCTCGAGTAAACAAATTTTCCTAATCTTTCTGTTCAAGCGCCATCTAC	0.75 RPM ratio (pull-down/input)
GATGATTGTTCTCCCAGCTGATGAATTGGCAACGTCGAGTAAACAAATTTTCCTAATCTTTCTGTTCAAGCGCCATCTAC	0.92 RPM ratio (pull-down/input)
GATGATTGTTCTCCCAGCTGATGAATTTGCGCTTTCGAGTAAACAAATTTTCCTAATCTTTCTGTTCAAGCGCCATCTAC	1.05 RPM ratio (pull-down/input)
GATGATTGTTCTCCCAGCTGATGAATTGGCTTGCTCGAGTAAACAAATTTTCCTAATCTTTCTGTTCAAGCGCCATCTAC	0.868 RPM ratio (pull-down/input)
GATGATTGTTCTCCCAGCTGATGAATTAAGGAAATCGAGTAAACAAATTTTCCTAATCTTTCTGTTCAAGCGCCATCTAC	1.04 RPM ratio (pull-down/input)
GATGATTGTTCTCCCAGCTGATGAATTAACACGCTCGAGTAAACAAATTTTCCTAATCTTTCTGTTCAAGCGCCATCTAC	1.02 RPM ratio (pull-down/input)
GATGATTGTTCTCCCAGCTGATGAATTTAGGCTGTCGAGTAAACAAATTTTCCTAATCTTTCTGTTCAAGCGCCATCTAC	0.946 RPM ratio (pull-down/input)
GATGATTGTTCTCCCAGCTGATGAATTTCCTCCATCGAGTAAACAAATTTTCCTAATCTTTCTGTTCAAGCGCCATCTAC	0.87 RPM ratio (pull-down/input)
GATGATTGTTCTCCCAGCTGATGAATTCCTTCGATCGAGTAAACAAATTTTCCTAATCTTTCTGTTCAAGCGCCATCTAC	0.836 RPM ratio (pull-down/input)
GATGATTGTTCTCCCAGCTGATGAATTGAATCCCTCGAGTAAACAAATTTTCCTAATCTTTCTGTTCAAGCGCCATCTAC	0.801 RPM ratio (pull-down/input)
GATGATTGTTCTCCCAGCTGATGAATTCCATGATTCGAGTAAACAAATTTTCCTAATCTTTCTGTTCAAGCGCCATCTAC	0.874 RPM ratio (pull-down/input)

Sequence	binding signal
GATGATTGTTCTCCCAGCTGATGAATTGGCCTAATCGAGTAAACAAATTTTCCTAATCTTTCTGTTCAAGCGCCATCTAC	0.974 RPM ratio (pull-down/input)
GATGATTGTTCTCCCAGCTGATGAATTCAAATCCTCGAGTAAACAAATTTTCCTAATCTTTCTGTTCAAGCGCCATCTAC	0.895 RPM ratio (pull-down/input)
GATGATTGTTCTCCCAGCTGATGAATTCTACAGATCGAGTAAACAAATTTTCCTAATCTTTCTGTTCAAGCGCCATCTAC	0.89 RPM ratio (pull-down/input)
GATGATTGTTCTCCCAGCTGATGAATTGCGGCATTCGAGTAAACAAATTTTCCTAATCTTTCTGTTCAAGCGCCATCTAC	1.33 RPM ratio (pull-down/input)
GATGATTGTTCTCCCAGCTGATGAATTTCTTGTTTCGAGTAAACAAATTTTCCTAATCTTTCTGTTCAAGCGCCATCTAC	1.14 RPM ratio (pull-down/input)
GATGATTGTTCTCCCAGCTGATGAATTAGACGGATCGAGTAAACAAATTTTCCTAATCTTTCTGTTCAAGCGCCATCTAC	0.947 RPM ratio (pull-down/input)
GATGATTGTTCTCCCAGCTGATGAATTTTATCATTCGAGTAAACAAATTTTCCTAATCTTTCTGTTCAAGCGCCATCTAC	1.2 RPM ratio (pull-down/input)
GATGATTGTTCTCCCAGCTGATGAATTACTGTCCTCGAGTAAACAAATTTTCCTAATCTTTCTGTTCAAGCGCCATCTAC	0.938 RPM ratio (pull-down/input)
GATGATTGTTCTCCCAGCTGATGAATTTCCCGTGTCGAGTAAACAAATTTTCCTAATCTTTCTGTTCAAGCGCCATCTAC	0.829 RPM ratio (pull-down/input)
GATGATTGTTCTCCCAGCTGATGAATTCGCAAGGTCGAGTAAACAAATTTTCCTAATCTTTCTGTTCAAGCGCCATCTAC	0.82 RPM ratio (pull-down/input)
GATGATTGTTCTCCCAGCTGATGAATTTTATGCCTCGAGTAAACAAATTTTCCTAATCTTTCTGTTCAAGCGCCATCTAC	1.02 RPM ratio (pull-down/input)
GATGATTGTTCTCCCAGCTGATGAATTGATTTGATCGAGTAAACAAATTTTCCTAATCTTTCTGTTCAAGCGCCATCTAC	1.07 RPM ratio (pull-down/input)
GATGATTGTTCTCCCAGCTGATGAATTCTTGTAGTCGAGTAAACAAATTTTCCTAATCTTTCTGTTCAAGCGCCATCTAC	1.2 RPM ratio (pull-down/input)
GATGATTGTTCTCCCAGCTGATGAATTCGATGCTTCGAGTAAACAAATTTTCCTAATCTTTCTGTTCAAGCGCCATCTAC	0.974 RPM ratio (pull-down/input)
GATGATTGTTCTCCCAGCTGATGAATTTCTATCTTCGAGTAAACAAATTTTCCTAATCTTTCTGTTCAAGCGCCATCTAC	0.883 RPM ratio (pull-down/input)
GATGATTGTTCTCCCAGCTGATGAATTAAATTGTTCGAGTAAACAAATTTTCCTAATCTTTCTGTTCAAGCGCCATCTAC	1 RPM ratio (pull-down/input)
GATGATTGTTCTCCCAGCTGATGAATTCAGTCGTTCGAGTAAACAAATTTTCCTAATCTTTCTGTTCAAGCGCCATCTAC	0.873 RPM ratio (pull-down/input)
GATGATTGTTCTCCCAGCTGATGAATTAATGCCTTCGAGTAAACAAATTTTCCTAATCTTTCTGTTCAAGCGCCATCTAC	1.15 RPM ratio (pull-down/input)
GATGATTGTTCTCCCAGCTGATGAATTGTGTAATTCGAGTAAACAAATTTTCCTAATCTTTCTGTTCAAGCGCCATCTAC	1.32 RPM ratio (pull-down/input)
GATGATTGTTCTCCCAGCTGATGAATTTACGGTATCGAGTAAACAAATTTTCCTAATCTTTCTGTTCAAGCGCCATCTAC	1.19 RPM ratio (pull-down/input)
GATGATTGTTCTCCCAGCTGATGAATTATGACGATCGAGTAAACAAATTTTCCTAATCTTTCTGTTCAAGCGCCATCTAC	0.937 RPM ratio (pull-down/input)

Sequence	binding signal
GATGATTGTTCTCCCAGCTGATGAATTGCCCCCATCGAGTAAACAAATTTTCCTAATCTTTCTGTTCAAGCGCCATCTAC	0.972 RPM ratio (pull-down/input)
GATGATTGTTCTCCCAGCTGATGAATTTGATTGATCGAGTAAACAAATTTTCCTAATCTTTCTGTTCAAGCGCCATCTAC	1.1 RPM ratio (pull-down/input)
GATGATTGTTCTCCCAGCTGATGAATTCTCAACGTCGAGTAAACAAATTTTCCTAATCTTTCTGTTCAAGCGCCATCTAC	0.888 RPM ratio (pull-down/input)
GATGATTGTTCTCCCAGCTGATGAATTGCCTAGGTCGAGTAAACAAATTTTCCTAATCTTTCTGTTCAAGCGCCATCTAC	0.859 RPM ratio (pull-down/input)
GATGATTGTTCTCCCAGCTGATGAATTTGACTCGTCGAGTAAACAAATTTTCCTAATCTTTCTGTTCAAGCGCCATCTAC	0.908 RPM ratio (pull-down/input)
GATGATTGTTCTCCCAGCTGATGAATTAAATGACTCGAGTAAACAAATTTTCCTAATCTTTCTGTTCAAGCGCCATCTAC	0.967 RPM ratio (pull-down/input)
GATGATTGTTCTCCCAGCTGATGAATTCGAACATTCGAGTAAACAAATTTTCCTAATCTTTCTGTTCAAGCGCCATCTAC	1 RPM ratio (pull-down/input)
GATGATTGTTCTCCCAGCTGATGAATTTGTTCCATCGAGTAAACAAATTTTCCTAATCTTTCTGTTCAAGCGCCATCTAC	1.24 RPM ratio (pull-down/input)
GATGATTGTTCTCCCAGCTGATGAATTAGCCCGTTCGAGTAAACAAATTTTCCTAATCTTTCTGTTCAAGCGCCATCTAC	0.839 RPM ratio (pull-down/input)
GATGATTGTTCTCCCAGCTGATGAATTCAGTGCTTCGAGTAAACAAATTTTCCTAATCTTTCTGTTCAAGCGCCATCTAC	0.823 RPM ratio (pull-down/input)
GATGATTGTTCTCCCAGCTGATGAATTCGGCGCTTCGAGTAAACAAATTTTCCTAATCTTTCTGTTCAAGCGCCATCTAC	0.87 RPM ratio (pull-down/input)
GATGATTGTTCTCCCAGCTGATGAATTTCTCAAATCGAGTAAACAAATTTTCCTAATCTTTCTGTTCAAGCGCCATCTAC	1 RPM ratio (pull-down/input)
GATGATTGTTCTCCCAGCTGATGAATTGTCGAGATCGAGTAAACAAATTTTCCTAATCTTTCTGTTCAAGCGCCATCTAC	0.918 RPM ratio (pull-down/input)
GATGATTGTTCTCCCAGCTGATGAATTTCGTTGTTCGAGTAAACAAATTTTCCTAATCTTTCTGTTCAAGCGCCATCTAC	1.23 RPM ratio (pull-down/input)
GATGATTGTTCTCCCAGCTGATGAATTTTATCTGTCGAGTAAACAAATTTTCCTAATCTTTCTGTTCAAGCGCCATCTAC	0.918 RPM ratio (pull-down/input)
GATGATTGTTCTCCCAGCTGATGAATTTGGTCGTTCGAGTAAACAAATTTTCCTAATCTTTCTGTTCAAGCGCCATCTAC	0.921 RPM ratio (pull-down/input)
GATGATTGTTCTCCCAGCTGATGAATTTTCTGGCTCGAGTAAACAAATTTTCCTAATCTTTCTGTTCAAGCGCCATCTAC	0.777 RPM ratio (pull-down/input)
GATGATTGTTCTCCCAGCTGATGAATTCAGCCCATCGAGTAAACAAATTTTCCTAATCTTTCTGTTCAAGCGCCATCTAC	0.816 RPM ratio (pull-down/input)
GATGATTGTTCTCCCAGCTGATGAATTTATGCGATCGAGTAAACAAATTTTCCTAATCTTTCTGTTCAAGCGCCATCTAC	1.16 RPM ratio (pull-down/input)
GATGATTGTTCTCCCAGCTGATGAATTTGTAGAGTCGAGTAAACAAATTTTCCTAATCTTTCTGTTCAAGCGCCATCTAC	0.866 RPM ratio (pull-down/input)
GATGATTGTTCTCCCAGCTGATGAATTTAGATGGTCGAGTAAACAAATTTTCCTAATCTTTCTGTTCAAGCGCCATCTAC	1.02 RPM ratio (pull-down/input)

— article PMC12820563, “FoxP3 forms a head-to-head dimer in vivo and stabilizes its multimerization on adjacent microsatellites”
